# Reference: PubChem BioAssay (Tox21)
# Values joined by “and” are separate entries in the source; they are usually repeats but may differ in a detail not shown here. Equal entries are not always repeated. This list was built around the results that the source calls inconclusive (neither active nor inactive); the mix of calls is not that of the screen. For part of these data: Where the call is inconclusive, the potency comes from a doubtful curve fit. Active and inactive are the calls of the source. Unless noted, the call rests on the fitted dose curve.
# Columns and labels:
# [1] = target: Peroxisome proliferator-activated receptor gamma (Homo sapiens) (UniProt P37231); assay: qHTS assay to identify small molecule antagonists of the peroxisome proliferator-activated receptor gamma (PPARg) signaling pathway (AID 743191); conditions: HEK293H PPARg-UAS-bla, beta-lactamase ratio, antagonist, 17 h; further: nearly all actives have a fitted effect of over 30% in size; further: potency means the concentration at half of the fitted maximal effect; on ratio activity, negative = inhibition: on the % scale 0 is the no-effect control and ±100 the full control effect
# How it was run: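 GeneBLAzer PPARg UAS-bla HEK293H cells, 5 h post-plating, exposed to compounds 17 h at 37C. LiveBLAzer B/G FRET substrate added for 1 h at room temperature; beta-lactamase reporter read by fluorescence intensity.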
# [2] = target: Peroxisome proliferator-activated receptor delta (Homo sapiens) (UniProt Q03181); assay: qHTS assay to identify small molecule antagonists of the peroxisome proliferator-activated receptor delta (PPARd) signaling pathway (AID 743215; active means well fitted inhibition curve with a large enough effect in the signal ratio in the repeat runs, not every such curve was filed as active; inconclusive means weak or mixed curves, or effect the other way; inactive means no such curve, though single readings can be large or run the other way; the % refers to the signal ratio;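 further: cells stimulated with agonist L165041 at 300 nM final during compound exposure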; further: potency means the concentration at half of the fitted maximal effect); conditions: HEK293H PPARd-UAS-bla, beta-lactamase FRET ratio, antagonist, 17 h; ratio activity, negative = inhibition: at 62 µM (top of the series) unless noted
# How it was run: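 Antagonist-mode beta-lactamase reporter screen: HEK293H cells with UAS-bla under PPARd control, stimulated by 300 nM L165041 (final) alongside test compound for 17 h at 37 C, then FRET fluorescence after 2 h substrate incubation.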
# [3] = qHTS assay to identify small molecule agonists of the farnesoid-X-receptor (FXR) signaling pathway - cell viability counter screen (AID 743218; active means well fitted curve in the direction sought with a large enough effect in the repeat runs; inconclusive means weak or mixed curves; inactive means no such curve, though single readings can be large; an effect the other way counts as inactive or inconclusive; further: on the % scale 0 is the no-effect control and ±100 the full control effect; nearly all actives have a fitted effect of over 45% in size); conditions: FXR-bla HEK293T viability, CellTiter-Glo luminescence, 16 h; viability change, negative = cytotoxic: at 62.6 µM (top of the series) unless noted
# How it was run: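 In GeneBLAzer FXR-UAS-bla HEK 293T cells, compounds act for 16 h at 37 C. Cell viability is then scored in the reporter wells by CellTiter-Glo, 30 min at RT, luminescence.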
# [4] = qHTS assay for small molecule agonists of the antioxidant response element (ARE) signaling pathway (AID 743202; active means well fitted activation curve with a large enough effect in the signal ratio in the repeat runs, not every such curve was filed as active; inconclusive means weak or mixed curves, or effect the other way; inactive means no such curve, though single readings can be large or run the other way; the % refers to the signal ratio; further: potency means the concentration at half of the fitted maximal effect); conditions: HepG2 ARE-bla reporter, beta-lactamase FRET, 16 h
# How it was run: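 ARE-bla HepG2 cells (beta-lactamase reporter under the antioxidant response element), plated 5 hours, then exposed to compounds 16 hours at 37 C. LiveBLAzer B/G FRET substrate added for 2 hours at room temperature; fluorescence intensity read.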
# [5] = target: Vitamin D3 receptor (Homo sapiens) (UniProt P11473); assay: qHTS assay to identify small molecule antagonists of the vitamin D receptor (VDR) signaling pathway (AID 743223; active means well fitted inhibition curve with a large enough effect in the signal ratio in the repeat runs, not every such curve was filed as active; inconclusive means weak or mixed curves, or effect the other way; inactive means no such curve, though single readings can be large or run the other way; the % refers to the signal ratio; further: potency means the concentration at half of the fitted maximal effect); conditions: VDR-UAS-bla HEK293T, beta-lactamase FRET ratio, 16 h; activity change, negative = inhibition: at 61 µM (top of the series) unless noted
# How it was run: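 Beta-lactamase activity in VDR-bla cells is measured by FRET substrate fluorescence (2 h, room temperature) after cells spend 16 h at 37C with test compound and 3 nM final 1alpha,25-dihydroxyvitamin D3.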
# [6] = qHTS assay to identify small molecule antagonists of the peroxisome proliferator-activated receptor delta (PPARd) signaling pathway - cell viability counter screen (AID 743213; active means well fitted curve in the direction sought with a large enough effect in the repeat runs; inconclusive means weak or mixed curves; inactive means no such curve, though single readings can be large; an effect the other way counts as inactive or inconclusive; further: potency means the concentration at half of the fitted maximal effect; nearly all actives have a fitted effect of over 50% in size); conditions: PPARd-bla HEK293H viability, CellTiter-Glo luminescence, 17 h; viability change, negative = cytotoxic: at 62 µM (top of the series) unless noted
# How it was run: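 PPARd-bla HEK293H cells (3000/well) got compound plus 300 nM L165041 agonist for 17 h at 37 C. Viability in the same wells came from CellTiter-Glo luminescence after 30 min at room temperature.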
# [7] = target: Bile acid receptor (Homo sapiens) (UniProt Q96RI1); assay: qHTS assay to identify small molecule antagonists of the farnesoid-X-receptor (FXR) signaling pathway (AID 743217; active means well fitted inhibition curve with a large enough effect in the signal ratio in the repeat runs, not every such curve was filed as active; inconclusive means weak or mixed curves, or effect the other way; inactive means no such curve, though single readings can be large or run the other way; the % refers to the signal ratio; further: potency means the concentration at half of the fitted maximal effect); conditions: HEK293T FXR-UAS-bla, beta-lactamase ratio, CDCA-stimulated, 16 h; activity change, negative = inhibition: at 62.6 µM (top of the series) unless noted
# How it was run: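 Beta-lactamase reporter under UAS control in HEK 293T cells; compound exposure 16 h at 37 °C in the presence of chenodeoxycholic acid (50 uM final); signal from B/G FRET substrate after 2 h at room temperature.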
# [8] = qHTS assay to identify small molecule antagonists of the peroxisome proliferator-activated receptor gamma (PPARg) signaling pathway - cell viability counter screen (AID 743194; active means well fitted curve in the direction sought with a large enough effect in the repeat runs; inconclusive means weak or mixed curves; inactive means no such curve, though single readings can be large; an effect the other way counts as inactive or inconclusive; further: potency means the concentration at half of the fitted maximal effect; nearly all actives have a fitted effect of over 55% in size); conditions: PPARg-bla HEK293H viability, CellTiter-Glo luminescence, 17 h; Potency: co-treated with 50 nM rosiglitazone unless noted; activity change, negative = cytotoxicity: at 62.6 µM (top of the series), co-treated with 50 nM rosiglitazone unless noted
# How it was run: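 Cytotoxicity counter screen in PPARg-bla HEK293H cells, same wells as reporter assay. Compounds plus 50 nM rosiglitazone (final) for 17 h at 37 C, then viability read by CellTiter-Glo luminescence.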
# [9] = qHTS assay for small molecule activators of the heat shock response signaling pathway (AID 743210; active means well fitted activation curve with a large enough effect in the signal ratio in the repeat runs, with a control signal flat, not every such curve was filed as active; inconclusive means weak or mixed curves; the % refers to the signal ratio; further: potency means the concentration at half of the fitted maximal effect); conditions: HeLa HSE-bla reporter, beta-lactamase ratio, 5 h; activation: at 62.6 µM (top of the series)
# How it was run: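 HSE-bla HeLa cells (beta-lactamase reporter under heat shock response elements), plated overnight, then exposed to compounds 5 h at 37 C; LiveBLAzer B/G FRET substrate added, 2.5 h at room temperature, fluorescence intensity read.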
# [10] = qHTS assay to identify small molecule agonists of the vitamin D receptor (VDR) signaling pathway - cell viability counter screen (AID 743224; active means well fitted curve in the direction sought with a large enough effect in the repeat runs; inconclusive means weak or mixed curves; inactive means no such curve, though single readings can be large; an effect the other way counts as inactive or inconclusive; further: potency means the concentration at half of the fitted maximal effect; nearly all actives have a fitted effect of over 50% in size)
# How it was run: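 VDR-bla cell line, quantitative HTS format; 16 h compound incubation (37C, 5% CO2); ATP-based CellTiter-Glo luminescence measured in the reporter assay wells.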
# [11] = target: Peroxisome proliferator-activated receptor delta (Homo sapiens) (UniProt Q03181); assay: qHTS assay to identify small molecule agonists of the peroxisome proliferator-activated receptor delta (PPARd) signaling pathway (AID 743212); conditions: HEK293H PPARd-UAS-bla, beta-lactamase FRET ratio, 17 h; activation: at 62.6 µM (top of the series) unless noted; further: on the % scale 0 is the no-effect control and ±100 the full control effect
# How it was run: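 GeneBLAzer UAS-bla HEK293H cells carrying a PPARδ construct were exposed to compounds at 37 °C. Beta-lactamase activity was read by FRET fluorescence after 2 h at room temperature with LiveBLAzer B/G substrate.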
# [12] = qHTS assay for small molecule agonists of the antioxidant response element (ARE) signaling pathway - cell viability counter screen (AID 743203); further: potency means the concentration at half of the fitted maximal effect; nearly all actives have a fitted effect of over 55% in size
# How it was run: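 Cells (ARE-bla HepG2, 2,000/well) receive DMSO-dissolved compounds after a 5 hrs rest. Plates incubate 16 hrs at 37C/5% CO2. CellTiter-Glo luminescence is then recorded after 30 min at room temperature.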
# [13] = target: Bile acid receptor (Homo sapiens) (UniProt Q96RI1); assay: qHTS assay to identify small molecule agonists of the farnesoid-X-receptor (FXR) signaling pathway (AID 743220; active means well fitted activation curve with a large enough effect in the signal ratio in the repeat runs, not every such curve was filed as active; inconclusive means weak or mixed curves, or effect the other way; the % refers to the signal ratio; further: on the % scale 0 is the no-effect control and ±100 the full control effect); conditions: HEK293T FXR-UAS-bla, beta-lactamase FRET ratio, 16 h; activation: at 62.6 µM (top of the series) unless noted
# How it was run: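 Beta-lactamase reporter under UAS control in GeneBLAzer FXR HEK 293T cells (5000/well) measured with LiveBLAzer FRET substrate after 2 h at room temperature. Compound exposure lasted 16 h at 37C.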
# [14] = qHTS assay to identify small molecule antagonists of the farnesoid-X-receptor (FXR) signaling pathway - cell viability counter screen (AID 743221; active means well fitted cell-killing curve with a large enough effect in the repeat runs, not every such curve was filed as active; inconclusive means weak or mixed curves, or effect the other way; inactive means no such curve, though single readings can be large or run the other way; further: potency means the concentration at half of the fitted maximal effect; nearly all actives have a fitted effect of over 50% in size); conditions: FXR-bla HEK293T viability, CellTiter-Glo luminescence, 16 h; activity change, negative = cytotoxicity: at 62.6 µM (top of the series) unless noted
# How it was run: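 Compound effects on cell number were measured as CellTiter-Glo luminescence in HEK 293T cells expressing FXR-UAS-bla, after 16 h at 37 C with 50 uM CDCA (final).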
# [15] = target: Vitamin D3 receptor (Homo sapiens) (UniProt P11473); assay: qHTS assay to identify small molecule agonists of the vitamin D receptor (VDR) signaling pathway (AID 743222); conditions: HEK293T VDR-UAS-bla, beta-lactamase FRET ratio, 16 h; activation: at 63.5 µM (top of the series) unless noted; further: on the % scale 0 is the no-effect control and ±100 the full control effect
# How it was run: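 Agonist activity measured in VDR-bla reporter cells. Exposure 16 h, 37C, 5% CO2; detection by B/G FRET substrate, 2 h RT.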
# [16] = qHTS assay to identify small molecule antagonists of the vitamin D receptor (VDR) signaling pathway - cell viability counter screen (AID 743225; active means well fitted curve in the direction sought with a large enough effect in the repeat runs; inconclusive means weak or mixed curves; inactive means no such curve, though single readings can be large; an effect the other way counts as inactive or inconclusive; further: potency means the concentration at half of the fitted maximal effect; nearly all actives have a fitted effect of over 50% in size); conditions: VDR-bla HEK293T viability, CellTiter-Glo luminescence, 16 h; viability change, negative = cytotoxic: at 61 µM (top of the series) unless noted
# How it was run: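 In this counter screen, VDR-bla HEK 293T cells receive test compound plus 3 nM final calcitriol for 16 h at 37C. Room-temperature steps of 2 h with the beta-lactamase substrate, then 30 min with CellTiter-Glo, precede the luminescence read.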
# [17] = ratio activity, negative = inhibition: at 62.6 µM (top of the series) unless noted
# [18] = activation: at 73.3 µM (top of the series) unless noted
# Tags describe the fitted curve by direction and shape or compound fluorescence and quenching.
# Chain of UniProt P37231 (P37231 whole entry, looked up): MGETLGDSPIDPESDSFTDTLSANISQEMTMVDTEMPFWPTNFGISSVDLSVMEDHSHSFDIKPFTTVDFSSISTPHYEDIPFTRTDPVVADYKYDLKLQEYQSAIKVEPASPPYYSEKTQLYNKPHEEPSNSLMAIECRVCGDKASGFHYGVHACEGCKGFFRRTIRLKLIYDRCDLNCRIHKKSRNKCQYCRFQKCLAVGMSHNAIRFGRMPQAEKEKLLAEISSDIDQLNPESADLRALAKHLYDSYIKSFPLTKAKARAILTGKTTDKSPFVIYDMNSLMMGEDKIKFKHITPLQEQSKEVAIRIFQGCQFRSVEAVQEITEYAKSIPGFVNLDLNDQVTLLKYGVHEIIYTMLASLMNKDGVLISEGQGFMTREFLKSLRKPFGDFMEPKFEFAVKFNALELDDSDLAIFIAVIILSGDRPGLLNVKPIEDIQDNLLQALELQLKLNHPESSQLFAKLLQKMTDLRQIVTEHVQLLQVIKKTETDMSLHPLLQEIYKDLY
# Chain of UniProt Q96RI1 (Q96RI1 whole entry, looked up): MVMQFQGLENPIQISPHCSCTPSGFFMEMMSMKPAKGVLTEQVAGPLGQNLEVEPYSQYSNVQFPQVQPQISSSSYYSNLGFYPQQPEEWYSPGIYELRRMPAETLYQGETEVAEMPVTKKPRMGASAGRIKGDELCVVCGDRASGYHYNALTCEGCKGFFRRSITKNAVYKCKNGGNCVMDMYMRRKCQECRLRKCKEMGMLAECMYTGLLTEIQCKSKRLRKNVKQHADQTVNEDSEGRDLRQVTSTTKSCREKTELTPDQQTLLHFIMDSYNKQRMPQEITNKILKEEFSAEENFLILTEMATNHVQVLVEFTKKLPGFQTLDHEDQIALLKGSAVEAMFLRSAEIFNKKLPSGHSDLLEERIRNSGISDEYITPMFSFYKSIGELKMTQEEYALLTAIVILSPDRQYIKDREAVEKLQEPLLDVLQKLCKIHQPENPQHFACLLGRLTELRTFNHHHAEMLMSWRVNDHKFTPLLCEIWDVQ
# Chain of UniProt P11473 (P11473 whole entry, looked up): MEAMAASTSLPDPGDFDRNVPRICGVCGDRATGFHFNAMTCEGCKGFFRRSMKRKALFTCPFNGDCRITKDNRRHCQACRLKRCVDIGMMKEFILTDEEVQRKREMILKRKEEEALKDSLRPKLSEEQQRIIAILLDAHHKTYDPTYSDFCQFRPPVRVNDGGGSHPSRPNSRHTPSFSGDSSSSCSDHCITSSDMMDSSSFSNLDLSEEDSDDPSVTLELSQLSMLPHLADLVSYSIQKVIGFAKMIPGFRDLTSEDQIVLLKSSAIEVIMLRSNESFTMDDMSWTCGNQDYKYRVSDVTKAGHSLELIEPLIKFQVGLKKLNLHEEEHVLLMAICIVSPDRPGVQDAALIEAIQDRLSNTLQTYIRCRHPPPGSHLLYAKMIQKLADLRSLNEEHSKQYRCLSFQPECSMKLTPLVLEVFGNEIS
# Chain of UniProt Q03181 (Q03181 whole entry, looked up): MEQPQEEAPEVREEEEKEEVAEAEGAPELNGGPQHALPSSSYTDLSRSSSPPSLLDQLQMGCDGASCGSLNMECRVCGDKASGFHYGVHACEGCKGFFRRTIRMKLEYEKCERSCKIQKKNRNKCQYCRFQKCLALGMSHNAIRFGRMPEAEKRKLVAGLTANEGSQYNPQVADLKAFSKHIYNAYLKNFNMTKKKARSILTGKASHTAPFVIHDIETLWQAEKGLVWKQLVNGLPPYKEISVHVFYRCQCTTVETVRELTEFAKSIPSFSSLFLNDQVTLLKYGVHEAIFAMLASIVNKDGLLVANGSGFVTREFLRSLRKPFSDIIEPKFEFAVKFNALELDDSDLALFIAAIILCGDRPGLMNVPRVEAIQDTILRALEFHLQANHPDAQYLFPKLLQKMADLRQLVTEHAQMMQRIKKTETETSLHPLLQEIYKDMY
compound,measurement,setting,value
NCCc1ccc(O)cc1,"ratio activity, negative = inhibition",[1]; at 62.6 µM (top of the series),inactive: -0.724%
same,"ratio activity, negative = inhibition",[1]; [17],inconclusive: 13.6%
same,Potency,[2],inactive
same,Potency,[3],inactive
CN(C)C(=O)C(c1ccccc1)c1ccccc1,"ratio activity, negative = inhibition",[1]; at 62.6 µM (top of the series),inactive: 9.83%
same,"ratio activity, negative = inhibition",[1]; [17],inconclusive: -36.1%
same,Potency,[4]; [18],"inconclusive: 24 µM [rising, full curve, poor fit]"
same,Potency,[2],"inconclusive: 43.6 µM [rising, partial curve]"
same,"ratio activity, negative = inhibition",[2],inconclusive: 9.88%
same,"activity change, negative = inhibition",[5],inconclusive: -32.3% and inconclusive: 0.807%
CCCC1COC(Cn2cncn2)(c2ccc(Cl)cc2Cl)O1 (configuration not stated),"ratio activity, negative = inhibition",[1]; at 81.1 µM (top of the series),inactive: 6.77%
same,"ratio activity, negative = inhibition",[1]; [17],inconclusive: -20%
same,Potency,[6],"inconclusive: 1.1 µM [cytotoxic, single point]"
same,"activity change, negative = inhibition",[7],inconclusive: -24.7%
COC(=O)Nc1nc2ccccc2[nH]1,Potency,[1]; [17],inconclusive: 6.17 µM [inhibitor] and inactive
same,Potency,[8],"inconclusive: 1.95 µM [cytotoxic, full curve, poor fit] and inconclusive: 3.89 µM [cytotoxic, full curve, poor fit]"
same,activation,[4]; [18],inconclusive: 18.4%
same,activation,[4]; at 73.3 µM (top of the series),inactive: -1.35%
same,Potency,[9],inconclusive: 61.7 µM and inactive
same,Potency,[6],"inconclusive: 3.47 µM [cytotoxic, full curve, poor fit]"
same,Potency,[5],inconclusive: 5.49 µM [inhibitor]
same,"activity change, negative = inhibition",[5],inconclusive: -17%
same,Potency,[10],"inconclusive: 61.7 µM [cytotoxic, partial curve, poor fit]"
C[N+](C)(C)CC(=O)O,"ratio activity, negative = inhibition",[1]; at 62.6 µM (top of the series),inactive: 8.24%
same,"ratio activity, negative = inhibition",[1]; [17],inconclusive: -1.01%
same,Potency,[11],inactive
same,Potency,[2],inactive
CCCCC(O)(Cn1cncn1)c1ccc(Cl)cc1Cl (configuration not stated),"ratio activity, negative = inhibition",[1]; [17],inconclusive: -34.6%
same,Potency,[8],"inconclusive: 489 nM [cytotoxic, full curve, poor fit]"
same,Potency,[4]; [18],"inconclusive: 21.7 µM [rising, partial curve]"
same,Potency,[12],"inconclusive: 68.5 µM [cytotoxic, single point]"
same,Potency,[9],inconclusive: 58.2 µM
same,activation,[11],inconclusive: -10.2%
same,Potency,[6],"inconclusive: 54.9 µM [cytotoxic, single point]"
same,Potency,[2],inconclusive: 54.9 µM [inhibitor]
same,Potency,[7],inconclusive: 54.9 µM [inhibitor]
same,Potency,[13],inactive
same,Potency,[14],"inconclusive: 54.9 µM [falling, single point]"
same,activation,[15],inconclusive: -33.8%
same,"activity change, negative = inhibition",[5],inconclusive: -34.4%
same,Potency,[10],active: 48.9 µM
same,Potency,[16],active: 54.9 µM
